{
  "source": "PubChem BioAssay AID651804",
  "about": "(National Center for Advancing Translational Sciences (NCATS), 2012)",
  "note": "Hit rate of the full screen: of about 1,200 compounds, about 20 (2%) were called active. Inconclusive results, whose numbers are uncertain, are shown with a selection of clear calls. Calls come from the whole dose curve; as a rule, active = well fitted inhibition curve with a large enough effect; inconclusive = small, poorly fitted or top-dose-only effect; inactive = no such curve, though single readings can be large or run the other way. No potency is given beside an inconclusive call; the fits are too rough. Potency is the fitted concentration of half-maximal effect; tags give direction and shape of the fitted curve.",
  "data": [
    {"biological_target": "Transcriptional regulator ERG (Homo sapiens) (UniProt P11308)", "sequence (P11308 whole entry, looked up, the tested form may be a part)": "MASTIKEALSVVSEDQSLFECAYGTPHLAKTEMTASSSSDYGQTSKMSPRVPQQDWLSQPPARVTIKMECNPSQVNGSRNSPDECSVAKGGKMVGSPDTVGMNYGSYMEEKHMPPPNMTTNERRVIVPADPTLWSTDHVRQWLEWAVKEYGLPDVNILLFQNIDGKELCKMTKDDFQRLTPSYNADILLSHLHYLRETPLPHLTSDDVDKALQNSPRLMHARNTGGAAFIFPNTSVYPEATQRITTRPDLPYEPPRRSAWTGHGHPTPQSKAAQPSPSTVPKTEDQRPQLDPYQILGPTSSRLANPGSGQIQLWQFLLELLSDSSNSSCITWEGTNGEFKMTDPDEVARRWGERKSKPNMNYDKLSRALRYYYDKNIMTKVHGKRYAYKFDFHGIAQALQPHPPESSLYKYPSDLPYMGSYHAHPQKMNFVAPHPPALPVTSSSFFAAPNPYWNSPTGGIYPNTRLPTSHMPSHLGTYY", "assay": "qHTS for Small Molecule Inhibitors of the ERG Ets/DNA interaction: HTRF assay against cherry picks", "settings": "His-ERG Ets domain with biotin-DNA; series mostly up to 154 µM", "summary_of_the_method": "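HTRF of His-tagged ERG Ets domain (200 nM solution) with biotin-DNA (200 nM solution) in 300mM KCl, 50mM Tris-HCl pH 7.5, 1mM EDTA, 1mM DTT; 10 min RT. Anti-His cryptate donor plus streptavidin acceptor added, 10 min, FRET read at 615/665 nm.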", "values": [
      {"smiles": "COc1ccc(Nc2ccnc(Nc3ccc(OC)cc3)n2)cc1", "Potency": "inconclusive [inhibitor, partial curve, poor fit]"},
      {"smiles": "COc1ccc(-c2csc3nc(-c4ccc(C)cc4)oc(=O)c23)cc1OC", "Potency": "inconclusive [inhibitor, full curve, poor fit]"},
      {"smiles": "Cc1[nH]n(-c2ccccc2)c(=O)c1C=Nc1ccc(S(=O)(=O)NC(N)=O)cc1", "Potency": "inconclusive [inhibitor, partial curve, poor fit]"},
      {"smiles": "CC(=O)Nc1ccc(NC(=O)Nc2ccc(C)cc2C)cc1", "Potency": "inconclusive [inhibitor, full curve, poor fit]"},
      {"smiles": "C/C(=N\\Nc1ccc([N+](=O)[O-])cc1[N+](=O)[O-])C(C)C(C)C", "note": "(stereo unspecified)", "Potency": "inconclusive [inhibitor, partial curve, poor fit]"},
      {"smiles": "CCC(=O)NCCn1c(C)cc2ccccc21", "Potency": "inconclusive [inhibitor, full curve, poor fit]"},
      {"smiles": "CN1C(=O)c2cccc3c(N)ccc(c23)C1=O", "Potency": "inconclusive [inhibitor, partial curve, poor fit]"},
      {"smiles": "COCCN1C=C2C(=O)C(C)(OC(=O)CCC(=O)OC)C(=O)C=C2C=C1C1CC1", "note": "(stereo unspecified)", "Potency": "inconclusive [inhibitor, single point]"},
      {"smiles": "O=C(NCc1cccs1)c1ccc([N+](=O)[O-])cc1", "Potency": "inconclusive [inhibitor, partial curve, poor fit]"},
      {"smiles": "CC(C)(C)c1ccc(C(=O)NCC(=O)OCC(=O)Nc2ccccc2[N+](=O)[O-])cc1", "Potency": "inconclusive [inhibitor, partial curve, poor fit]"},
      {"smiles": "S=c1[nH]nc(CSCCOc2ccccc2)o1", "Potency": "inconclusive [inhibitor, single point]"},
      {"smiles": "CC1CC(C)CN(CCCNS(=O)(=O)c2cc(Br)cc3c2N(C(=O)C2CC2)CC3)C1", "note": "(stereo unspecified)", "Potency": "inconclusive [inhibitor, single point]"},
      {"smiles": "O=C(Nc1ccccc1)c1sccc1Oc1ccc([N+](=O)[O-])cc1F", "Potency": "inconclusive [inhibitor, full curve, poor fit]"},
      {"smiles": "Cc1cccc(C(=O)NCCNc2nc3cc(C)c(C)cc3cc2C)c1", "Potency": "inactive"},
      {"smiles": "Cc1cccc(NC2(C(=O)O)CCCC2)c1", "Potency": "inactive"},
      {"smiles": "Cc1cnccc1CNC(=O)CC1C(=O)NCCN1CC(C)(C)C", "note": "(stereo unspecified)", "Potency": "inconclusive [inhibitor, single point]"},
      {"smiles": "COc1ccc(C(=O)c2cccc(C(=O)c3ccc(OC)c(C)c3)c2)cc1C", "Potency": "inactive"},
      {"smiles": "CNCCCOc1cc(C)cc(C)c1C", "Potency": "inactive"},
      {"smiles": "COc1cccc(-c2nn(C)c3sc(C(=O)NCc4ccc(OC)cc4OC)cc23)c1", "Potency": "inactive"},
      {"smiles": "Cc1nn(CC(=O)NCCCN2CCCC2)c(=O)c2nn(-c3ccccc3)c(C)c12", "Potency": "inconclusive [inhibitor, single point]"},
      {"smiles": "CCN(CC)CCNC(C(=O)Nc1ccc([N+](=O)[O-])cc1Br)c1ccccc1", "note": "(stereo unspecified)", "Potency": "inconclusive [inhibitor, partial curve, poor fit]"},
      {"smiles": "O=C1CCC(C(=O)N2CCCCO2)CN1CCc1ccc(Cl)cc1", "note": "(stereo unspecified)", "Potency": "inconclusive [inhibitor, single point]"},
      {"smiles": "CCCCCNc1nc(NCCCO)c(C#N)c2c1CN(C)CC2", "Potency": "inconclusive [inhibitor, partial curve, poor fit]"},
      {"smiles": "Cc1ccnn1-c1ccc(C(=O)OCC(=O)Nc2ccc(F)cc2)cc1", "Potency": "inactive"},
      {"smiles": "COc1cc(C(=O)Nc2ccc(Cl)c([N+](=O)[O-])c2)cc(OC)c1OC", "Potency": "inconclusive [inhibitor, partial curve, poor fit]"},
      {"smiles": "S=C(NCCc1ccccc1)Nc1ccc(Cl)cc1Cl", "Potency": "inconclusive [inhibitor, single point]"},
      {"smiles": "CCCCn1c(N)c(N(CC(C)C)C(=O)c2ccc(S(=O)(=O)N3CCC(C)CC3)cc2)c(=O)[nH]c1=O", "Potency": "inactive"},
      {"smiles": "COC(=O)C1=C(C)NC(C)=C(C(=O)OC)C1c1ccc(-c2cccc(Cl)c2Cl)o1", "Potency": "inactive"},
      {"smiles": "Cn1nc(C(F)(F)F)c(C#N)c1N1CCN(c2ccccn2)CC1", "Potency": "inactive"},
      {"smiles": "COc1ccc(N(CCC(=O)Nc2ccccc2F)S(=O)(=O)c2ccc(C)cc2C)cc1", "Potency": "inactive"},
      {"smiles": "CCCC(NC(=O)C(C)Sc1nnnn1C1CC1)c1ccccc1", "note": "(stereo unspecified)", "Potency": "inactive"},
      {"smiles": "COc1ccc(/C=C/c2c(-c3ccc(OC)cc3)sc3cc(OC)c(OC)cc23)cc1", "Potency": "inconclusive [inhibitor, single point]"},
      {"smiles": "Cc1cc(/C=N/NC(N)=S)c(O)c(/C=N/NC(N)=S)c1", "Potency": "inconclusive [inhibitor, partial curve, poor fit]"},
      {"smiles": "N#Cc1ccc(CN2CCN(C(=O)CN3C(=O)NC4(CCCC4)C3=O)CC2)cc1", "Potency": "inconclusive [inhibitor, single point]"},
      {"smiles": "Cc1cc2[nH]c3c(c[n+](C)c4ccccc34)c2cc1C", "Potency": "active: 3.55 µM"},
      {"smiles": "Cc1ccc(/C=C/C(=O)NCc2ccncc2)cc1", "Potency": "inconclusive [inhibitor, single point]"},
      {"smiles": "Cc1[nH]ccc2c1[nH]c1cc(=O)ccc12", "Potency": "inconclusive [inhibitor, single point]"},
      {"smiles": "Cc1ccccc1S(=O)(=O)N(CC(O)CN1C(=O)NC(C)(C)C1=O)c1ccccc1", "note": "(stereo unspecified)", "Potency": "inconclusive [inhibitor, single point]"},
      {"smiles": "N/C(=N\\N=C\\c1ccc(O)c(O)c1)c1nonc1N", "Potency": "inconclusive [inhibitor, partial curve, poor fit]"},
      {"smiles": "COc1ccc(CNC(=O)COC(=O)CCOc2ccccc2)cc1", "Potency": "inactive"},
      {"smiles": "N#C/C(=C\\c1c(N2CCC(C(N)=O)CC2)nc2ccccn2c1=O)C(=O)NCc1ccco1", "Potency": "inconclusive [inhibitor, partial curve, poor fit]"},
      {"smiles": "O=c1c(-c2ccccc2)c[nH]n1-c1cccc([N+](=O)[O-])c1", "Potency": "inconclusive [inhibitor, partial curve, poor fit]"},
      {"smiles": "CCN(C(=O)CSc1nc2cc(C(=O)O)ccc2c(=O)n1Cc1ccccc1)c1ccccc1", "Potency": "inactive"},
      {"smiles": "COc1ccc(OC)c(/C=N/NC(=O)CCCC(=O)Nc2cccc(Br)c2)c1", "Potency": "inconclusive [inhibitor, partial curve, poor fit]"},
      {"smiles": "COc1ccc(Nc2ncnc3sccc23)cc1OC", "Potency": "inactive"},
      {"smiles": "O=C(NNc1cc(N2CCOCC2)nc(N2CCOCC2)n1)c1ccc([N+](=O)[O-])cc1", "Potency": "inconclusive [inhibitor, partial curve, poor fit]"},
      {"smiles": "Cc1ccc(C(=O)Nc2ccc(C(=O)N/N=C/c3c[nH]c4ccccc34)cc2)cc1", "Potency": "inconclusive [inhibitor, partial curve, poor fit]"},
      {"smiles": "COC(=O)c1c(C)[nH]c(C(=O)C(C)OC(=O)c2cc(C)oc2C)c1C", "note": "(stereo unspecified)", "Potency": "inconclusive [inhibitor, partial curve, poor fit]"},
      {"smiles": "CN(C)CCN1C(=O)c2cccc3cc([N+](=O)[O-])cc(c23)C1=O", "Potency": "active: 7.94 µM"},
      {"smiles": "O=C(N/N=C/c1cc2c3c(c1O)CCCN3CCC2)c1ccccc1O", "Potency": "inconclusive [inhibitor, partial curve, poor fit]"},
      {"smiles": "NS(=O)(=O)c1ccc(NC(=O)COC(=O)c2c3c(nc4ccccc24)/C(=C\\c2ccc4c(c2)OCO4)CCC3)cc1", "Potency": "inconclusive [inhibitor, single point]"},
      {"smiles": "COc1cccc2c1C(=N)c1c(O)c3c(c(O)c1C2=O)CC(O)(C(C)=O)CC3OC1CC(N)C(O)C(C)O1", "note": "(stereo unspecified)", "Potency": "active: 3.98 µM"},
      {"smiles": "CC(=O)c1cccc(NC(=O)C(C)OC(=O)CCc2nc3ccccc3c(=O)[nH]2)c1", "note": "(stereo unspecified)", "Potency": "inactive"},
      {"smiles": "Cc1ccc(-n2c3c(c(=O)[nH]c2=O)C(NS(=O)(=O)c2ccc(Cl)cc2)(C(F)(F)F)C(=O)N3)cc1", "note": "(stereo unspecified)", "Potency": "inconclusive [inhibitor, full curve, poor fit]"},
      {"smiles": "COc1cccc(N/C=C/c2onc(C)c2[N+](=O)[O-])c1", "Potency": "inconclusive [inhibitor, partial curve, poor fit]"},
      {"smiles": "COc1ccc(NC(=O)C2=NN(c3ccccc3)C(=O)CC2)cn1", "Potency": "inconclusive [inhibitor, single point]"},
      {"smiles": "O=C(C1CCN(CCc2ccccc2)CC1)N1CCOCC1", "Potency": "inactive"},
      {"smiles": "Cc1cc(C(=O)COc2ccccc2C(N)=O)c(C)n1C", "Potency": "inconclusive [inhibitor, partial curve, poor fit]"},
      {"smiles": "C=CCn1c2ccccc2c2nnc(SCC(=O)NC(C(=O)OC)C(C)C)nc21", "note": "(stereo unspecified)", "Potency": "inactive"},
      {"smiles": "CCOC(=O)C1CCCN(C(=O)c2nn(-c3ccc(C)cc3)c(=O)n(C)c2=O)C1", "note": "(stereo unspecified)", "Potency": "inconclusive [inhibitor, full curve, poor fit]"},
      {"smiles": "O=C1C(SCCO)=C(SCCO)C(=O)c2ccccc21", "Potency": "active: 50.1 µM"},
      {"smiles": "CCC(OC(=O)CN1C(=O)C(=O)c2ccccc21)C(=O)Nc1ccc(S(N)(=O)=O)cc1", "note": "(stereo unspecified)", "Potency": "inconclusive [inhibitor, full curve, poor fit]"},
      {"smiles": "Cc1ccc(NC(=O)Cn2cc(C(=O)C3CC3)c3ccccc32)c(C)c1", "Potency": "inconclusive [inhibitor, full curve, poor fit]"},
      {"smiles": "CNC(=S)NNc1nncc2ccccc12", "Potency": "inconclusive [inhibitor, partial curve, poor fit]"},
      {"smiles": "N#Cc1c(NC(=O)CCCN2C(=O)c3ccccc3C2=O)oc(-c2ccccc2)c1-c1ccccc1", "Potency": "inactive"},
      {"smiles": "O=C(CNCc1ccc(F)cc1)Nc1ccccc1[N+](=O)[O-]", "Potency": "inconclusive [inhibitor, partial curve, poor fit]"}
    ]}
  ]
}
